# Test results reported in PMC4336329 (PLoS ONE, 2015).
# In all, about 310,000 compounds went through this assay and about 2,200 (0.71%) showed an effect of 50% or more. The effect is printed as a negative number. Some of the results follow.
# Molecular target: human ether-à-go-go-related gene (hERG) potassium channel (human, UniProt Q12809)
# Experiment: primary screen, population patch clamp on CHO cells stably expressing hERG
# human ether-à-go-go-related gene (hERG) potassium channel, sequence (Q12809 whole entry, looked up): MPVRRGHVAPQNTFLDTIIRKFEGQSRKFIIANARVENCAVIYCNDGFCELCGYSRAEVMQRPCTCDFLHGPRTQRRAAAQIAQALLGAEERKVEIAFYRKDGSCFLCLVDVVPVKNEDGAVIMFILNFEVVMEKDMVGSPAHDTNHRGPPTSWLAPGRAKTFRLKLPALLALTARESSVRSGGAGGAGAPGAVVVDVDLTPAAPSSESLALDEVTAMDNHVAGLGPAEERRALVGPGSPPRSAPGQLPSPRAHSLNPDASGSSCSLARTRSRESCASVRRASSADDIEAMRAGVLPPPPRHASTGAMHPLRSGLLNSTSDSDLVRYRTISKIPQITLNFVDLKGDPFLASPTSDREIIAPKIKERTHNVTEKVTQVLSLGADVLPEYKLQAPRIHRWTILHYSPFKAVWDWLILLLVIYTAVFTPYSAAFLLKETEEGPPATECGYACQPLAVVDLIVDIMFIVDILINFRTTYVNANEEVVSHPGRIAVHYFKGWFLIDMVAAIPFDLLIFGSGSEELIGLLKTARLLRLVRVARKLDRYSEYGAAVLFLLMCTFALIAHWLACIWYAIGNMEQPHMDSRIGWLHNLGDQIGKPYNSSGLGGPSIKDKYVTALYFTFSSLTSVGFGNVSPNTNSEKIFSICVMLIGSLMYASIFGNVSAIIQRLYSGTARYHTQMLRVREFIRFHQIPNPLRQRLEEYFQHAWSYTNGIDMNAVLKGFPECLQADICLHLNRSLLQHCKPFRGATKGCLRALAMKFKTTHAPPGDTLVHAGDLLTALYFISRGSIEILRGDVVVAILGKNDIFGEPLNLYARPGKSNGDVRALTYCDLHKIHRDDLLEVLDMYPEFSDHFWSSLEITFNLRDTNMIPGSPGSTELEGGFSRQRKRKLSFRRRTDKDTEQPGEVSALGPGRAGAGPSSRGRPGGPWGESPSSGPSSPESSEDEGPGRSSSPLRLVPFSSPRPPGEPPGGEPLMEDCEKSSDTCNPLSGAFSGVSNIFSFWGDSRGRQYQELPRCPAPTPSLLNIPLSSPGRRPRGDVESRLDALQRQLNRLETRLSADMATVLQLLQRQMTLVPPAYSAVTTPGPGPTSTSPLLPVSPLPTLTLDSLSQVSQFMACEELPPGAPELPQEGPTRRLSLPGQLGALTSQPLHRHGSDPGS
row,SMILES,"hERG current change (%, negative = inhibition) at 1uM [%]"
1,CCCNC(=O)c1ccc(-c2nn(C)c(=O)c3ccccc23)cc1,14.3
2,CC1CCC2C(=O)N(c3ccccc3OC(=O)c3ccccc3)C(=O)C2C1 (stereo not drawn),16.9
3,COc1ccc(C(=O)c2cn(-c3cccc(Br)c3)nc2C(C)=O)cc1,11.9
4,Cc1ccc(C(=O)CC(=O)c2cc(Cl)ccc2O)cc1,3.8
5,CN(C)CCNC(=O)c1nn(C)c2c1CCc1ccccc1-2,5.36
6,O=C(O)c1cccnc1SCC(=O)N1CCCCCC1,-0.241
7,CC1CN(CC(=O)Nc2ccc([N+](=O)[O-])cc2Br)CC(C)O1 (stereo not drawn),4.18
8,O=C(c1ccc(Br)cc1)N1CCN(c2ncccn2)CC1,11.7
9,CC1CC(C)CN(S(=O)(=O)c2cccc(C(=O)N3CCN(c4ccc(F)cc4)CC3)c2)C1 (stereo not drawn),-4.07
10,CC1CCC(NC(=O)C2CC(=O)N(c3ccc(Cl)cc3)C2)CC1 (stereo not drawn),13.7
11,Cc1cc(C(=O)CNCc2ccco2)c(C)n1-c1ccc(F)cc1,10.6
12,Cc1ccc(C(=O)N(CCc2ccccc2)Cc2ccccc2)cc1S(=O)(=O)N1CCCCC1,1.1
13,O=C(NCc1ccc2c(c1)OCO2)c1ccc(N2CCCC2=O)cc1,14.7
14,CN(C)/C=C/c1c(C#N)c(=O)ncn1Cc1ccccc1,19.5
15,COc1cc(OC)c(NC(=O)c2ccoc2C)cc1Cl,14.3
16,CC(C)c1ccc(S(=O)(=O)c2cn(Cc3ccc(F)cc3)c3cc4c(cc3c2=O)OCO4)cc1,3.38
17,Cc1cc(NC(=O)CN2C(=O)c3ccccc3C2=O)no1,13.8
18,CCCCC(=O)OCc1cn(-c2ccc(Cl)cc2)nn1,6.2
19,CCn1nc(C)c(/C=N/NC(=O)Cn2nccc2C)c1C,4.92

row,SMILES,"hERG current change (%, negative = inhibition) at 1uM [%]"
1,CCn1c(SCC(=O)Nc2cc(C)on2)nnc1-c1ccc(S(=O)(=O)N2CCN(C)CC2)cc1,4.42
2,O=C(Nc1ccccc1)c1cc2c(=O)c3ccccc3oc2nc1C(F)(F)F,7.43
3,CC(=O)Nc1ccc(S(=O)(=O)NCC2CCC(C(=O)NCCCN(C)Cc3ccccc3)CC2)cc1 (stereo not drawn),13.9
4,O=C(NC1CC(=O)N(c2ccc(F)cc2)C1)N1CCN(C(=O)c2ccco2)CC1 (stereo not drawn),-15.1
5,COc1ccc(-c2cc(C(=O)N3CCN(c4ccccc4F)CC3)c3ccccc3n2)c(OC)c1,4.75
6,O=C(Nc1ccc(Cl)cc1)Nc1nnc(SCc2ccccc2)s1,11.2
7,O=[N+]([O-])c1cc([N+](=O)[O-])c(Oc2cc(Cl)cc(Cl)c2)cc1NN1CCCCC1,11.6
8,CCN(CC)C(=O)NC1CC2CCCC(C1)N2Cc1ccccc1 (stereo not drawn),2.54
9,Cc1ccc(-c2cc(C(=O)Nc3cc(C)ccc3C)[nH]n2)c(O)c1,11.9
10,CCCN(CC(=O)Nc1ccc(OC)c(OC)c1)CC(=O)Nc1ccc(F)c(F)c1F,4.25
11,CC(C)(CO)NC(=O)Nc1ccc(Cl)c(Cl)c1,17.5
12,Cc1c[n+]([O-])cc(C)c1Oc1ccccc1,10.2
13,COC(=O)c1nnn(CC(=O)Nc2ccc(C)c(F)c2)c1C(=O)OC,17.1
14,Cc1ccc(N2CCC(N3CCN(C4CCCCC4)C(CCO)C3)CC2)cc1 (stereo not drawn),-10.5
15,COc1ccc(C(=O)NC2CCN(C(=O)NCc3ccccc3)CC2)cc1,8.79
16,CCN(CC)CC.COc1ccccc1-n1c(=S)[nH]c2c(sc(=S)n2-c2ccccc2C)c1=O,6.42
17,CN(Cc1ccccc1)C(=S)Nc1cccnc1,14.3
18,Cc1ccc(O)c(N/C=C/C(=O)c2ccc(F)cc2)c1,10
19,CC(C)(C)C1=C(C#N)C(c2ccncc2)C(C#N)=C(N)O1 (stereo not drawn),11.4

row,SMILES,"hERG current change (%, negative = inhibition) at 1uM [%]"
1,CCCCSc1nnc2nc(C)cc(C)n12,-3.49
2,O=C(OC1CCOC1=O)c1ccc(N2CCCC2)c([N+](=O)[O-])c1 (stereo not drawn),10
3,CCn1nc(C)c(Br)c1C(=O)Sc1ccccc1Cl,11.6
4,COc1ccccc1/C=C(/CC(=O)NCc1ccccc1)c1nc2ccccc2s1,10.9
5,CCN(CC)c1ccc(NC(=O)c2cc(OC)cc(OC)c2)c(C)c1,-2.35
6,COC(=O)c1ccc(-n2cnc3ccccc32)nc1,19
7,CC(C)[C@H](NC(=O)N1CC(=O)Nc2ccccc21)C(=O)N1CCC[C@@H]1C(=O)O,9.59
8,NC(=O)CCn1c(=O)oc2ccccc21,10.1
9,COc1ccc(S(=O)(=O)N2CCOCC2)cc1C(=O)N1CCCCC1,3.84
10,Cc1cc(NC(=O)COC(=O)C2CC2)ccc1Br,6.09
11,CC(=O)c1ccc(N(C(=O)CNC(=O)c2ccco2)C(C(=O)NC2CCCC2)c2ccco2)cc1 (stereo not drawn),20.6
12,CCOC(=O)/C(=C/Nc1ccccc1)[N+](=O)[O-],14.1
13,O=[N+]([O-])c1ccc(N/N=C/c2cccs2)nc1,14.9
14,COc1ccc(/C=N/NC(=O)c2cccc(S(=O)(=O)N3CCCC3)c2)cc1O,4.09
15,CC(=O)NCC(=O)OC(C(=O)c1ccccc1)c1ccc(Cl)cc1 (stereo not drawn),6.48
16,O=C(O)c1sc2cc(C(F)(F)F)cnc2c1-c1cccs1,10.4
17,COc1ccccc1NC(=O)CN(c1ccc([N+](=O)[O-])cc1)S(=O)(=O)c1ccccc1,5.71
18,COC(=O)CSc1ccc(S(=O)(=O)N2CCCCCC2)cc1[N+](=O)[O-],9.43
19,Cc1ncccc1C(=O)N1CCCC(CNC(=O)C2(c3ccc(Cl)cc3)CC2)C1 (stereo not drawn),14.4
